B1: Hsp27 3D (pseudo-phosphorylation mutant S15D, S78D, S82D) (natural protein)
chain: not shown
notes: Human Hsp27 (HSPB1) in which three serines (S15, S78 and S82) are replaced with aspartate; Vector was a gift of the Dickey laboratory; Compared throughout with the full-length wild type, so probably the whole protein
B2: Hsp27 ΔNTD ([…]) (domain or fragment)
chain: not shown
notes: Human Hsp27 (HSPB1) without the N-terminal domain, […]; Heterogeneous mixture of 3–5 mers; source: E. coli BL21 (DE3), purified (Ni-NTA, size exclusion)

Legend:
[1] = target: the molecule itself; test: SEC-MALS + other: negative-stain EM; SEC-MALS on a Shodex 804 column in SEC buffer, Hsp27 40 µM; negative-stain EM of Hsp27 at 1 µM in SEC buffer
[2] = target: the molecule itself; test: not stated; oligomeric state of Hsp27 GPG, ΔNTD and ΔNTD GPG (Supplementary Figure 8B, 8C); method not given

Protein | binding result [1] | stoichiometry N [2]
B1 | binds | –
B2 | – | 3 to 5

Reference: publication PMC6212398 (Nature Communications, 2018)
